T1: human B7H2 (Homo sapiens (Human), UniProt O75144)
T1 sequence (O75144 whole entry, looked up): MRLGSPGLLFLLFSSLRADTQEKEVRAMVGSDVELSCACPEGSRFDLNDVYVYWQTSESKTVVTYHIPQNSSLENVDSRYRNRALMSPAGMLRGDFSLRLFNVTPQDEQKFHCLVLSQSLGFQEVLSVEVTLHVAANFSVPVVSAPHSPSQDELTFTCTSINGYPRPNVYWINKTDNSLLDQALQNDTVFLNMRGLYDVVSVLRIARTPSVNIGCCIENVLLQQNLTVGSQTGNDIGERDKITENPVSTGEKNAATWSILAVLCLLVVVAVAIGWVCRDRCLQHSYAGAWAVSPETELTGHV

T2: human B7H3 (Homo sapiens (Human), UniProt Q5ZPR3)
T2 sequence (Q5ZPR3 whole entry, looked up): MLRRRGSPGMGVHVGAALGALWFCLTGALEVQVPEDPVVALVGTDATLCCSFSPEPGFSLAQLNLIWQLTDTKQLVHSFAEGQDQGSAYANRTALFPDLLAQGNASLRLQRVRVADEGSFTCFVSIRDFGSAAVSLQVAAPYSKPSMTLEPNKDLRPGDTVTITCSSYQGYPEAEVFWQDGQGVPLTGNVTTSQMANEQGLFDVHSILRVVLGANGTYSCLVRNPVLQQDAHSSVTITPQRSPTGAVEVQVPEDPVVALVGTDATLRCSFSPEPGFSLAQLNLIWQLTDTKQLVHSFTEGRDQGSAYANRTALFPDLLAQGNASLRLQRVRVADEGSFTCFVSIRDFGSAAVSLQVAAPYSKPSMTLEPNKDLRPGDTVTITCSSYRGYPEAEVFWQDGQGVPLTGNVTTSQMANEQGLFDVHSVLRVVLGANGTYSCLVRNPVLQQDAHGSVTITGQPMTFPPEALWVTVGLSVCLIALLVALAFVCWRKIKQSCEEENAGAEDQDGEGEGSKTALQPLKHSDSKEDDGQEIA

T3: human B7H4 (Homo sapiens (Human), UniProt Q7Z7D3)
T3 sequence (Q7Z7D3 whole entry, looked up): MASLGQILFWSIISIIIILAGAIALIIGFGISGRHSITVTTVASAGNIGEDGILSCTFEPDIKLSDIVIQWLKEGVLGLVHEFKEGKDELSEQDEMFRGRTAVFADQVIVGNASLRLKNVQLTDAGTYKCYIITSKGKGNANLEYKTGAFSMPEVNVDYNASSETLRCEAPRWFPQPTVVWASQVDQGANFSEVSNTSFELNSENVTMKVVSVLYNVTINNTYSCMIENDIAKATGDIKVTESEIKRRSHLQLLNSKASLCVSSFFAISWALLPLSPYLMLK


Experiments:
human B7H2 = target: T1, human B7H2; assay: ELISA binding of anti-B7H3 antibodies to human B7H2
Description: (§1) TPP6497, TPP6499, TPP6501, TPP6502 and TPP6515 were synthesized as described above. Binding of the antibodies to human B7H3 and to human B7H2 and B7H4 was characterized using ELISAs. Black 384-well Maxisorp plates (Nunc) were coated with anti-human IgG Fc (Sigma, 12316; 1:440 dilution) in single coating buffer (Candor) for one hour at 37° C. After washing once with PSB, 0.05% Tween, the plate was blocked with 100% Smart Block (Candor) for one hour at 37° C. The antibody to be tested was then attached to the plate (2 μg/ml IgG in PBS, 0.05% Tween, 10% Smart Block; 1 hour, room temperature). After washing three times, the plate was incubated with the antigen in question or with buffer alone (37 ng/ml in PBS, 0.05% Tween, 10% Smart block; B7H2: RnDSystems, 8206-B7; B7H3: RnDSystems, 2318-B3-050/CF; B7H4. RnDSystems, 6576-B7; 1 hour, room temperature). After washing three times, the plate was incubated with an anti-His HRP antibody (Novagen, 71840-3; 1:10000 dilution; 1 hour, room temperature). After washing three times, the plate was incubated with Amplex Red for 30 minutes and then read.

human B7H3 = target: T2, human B7H3; assay: ELISA binding of anti-B7H3 antibodies to human B7H3
Description: as §1

human B7H4 = target: T3, human B7H4; assay: ELISA binding of anti-B7H3 antibodies to human B7H4
Description: as §1

[1] = tested on: Raji: human Burkitt's lymphoma cells, B7H3-negative; assay: CTG cytotoxicity assay of anti-B7H3 ADCs, Raji; type: cell-based; conditions: 72 h incubation
Description: The analysis of the cytotoxic effects of the anti-B7H3 ADCs was carried out with various cell lines:
Raji: human Burkitt's lymphoma cells, DMSZ-ACC-319, standard medium: RPMI 1640; (Biochrom; # FG 1215, with stable glutamine)+10% FCS (Biochrom; # S0415), B7H3-negative.
The cells were cultivated by the standard method as stated by the American Tissue Culture Collection (ATCC) for the cell lines in question.
The cells were cultivated according to the standard method using the growth media listed under C-1. […] In a parallel plate, the cell vitality was determined at the start of the drug treatment (day 0) using the Cell Titer Glow (CTG) Luminescent Cell Viability Assay (Promega #G7573 and #G7571). To this end, 100 μl of the […] were added per cell batch, the plates were then covered with aluminium foil, shaken on the plate shaker at 180 rpm for 2 minutes, allowed to stand on the laboratory bench for 8 minutes and then measured using a luminometer (Victor X2, Perkin Elmer). The substrate detects the ATP content in the living cells, generating a luminescence signal of which the height is directly proportional to the vitality of the cells. […] From the measured data, the IC^50 of the growth inhibition in comparison to day 0 was calculated using the DRC (dose response curve) analysis spreadsheet with a 4-parameter fit. […]

Molecule | Binding to B7H2 (ELISA, in words) (human B7H2) | Binding to B7H3 (ELISA, in words) (human B7H3) | Binding to B7H4 (ELISA, in words) (human B7H4) | IC50 [1]
TPP6501 (antibody, TPP-6501 Heavy Chain (IgG); TPP-6501 Light Chain (IgG)) heavy: EVQLLESGGGLVQPGGSLRLSCAASGFTFSSYGMHWVRQAPGKGLEWVSAISGSGGSTYYADSVKGRFTISRDNSKNTLYLQMNSLRAEDTAVYYCARGSNYLGMDVWGQGTLVTVSS[left out - human IgG1 constant region] light: QSVLTQPPSASGTPGQRVTISCSGSSSNIGRNIVNWYQQLPGTAPKLLIYRSNQRPSGVPDRFSGSKSGTSASLAISGLRSEDEADYYCQTWGTGWVFGGGTKLTVLGQPKAAPSVTLFPPSSEELQANKATLVCLISDFYPGAVTVAWKADSSPVKAGVETTTPSKQSNNKYAASSYLSLTPEQWKSHRSYSCQVTHEGSTVEKTVAPTECS | not B7H2 or B7H4 | bind B7H3 | not B7H2 or B7H4 | 
208-6501: ADC of Example 208 (Intermediate F104) with anti-B7H3 antibody 6501 (conjugate) heavy: EVQLLESGGGLVQPGGSLRLSCAASGFTFSSYGMHWVRQAPGKGLEWVSAISGSGGSTYYADSVKGRFTISRDNSKNTLYLQMNSLRAEDTAVYYCARGSNYLGMDVWGQGTLVTVSS[left out - human IgG1 constant region] light: QSVLTQPPSASGTPGQRVTISCSGSSSNIGRNIVNWYQQLPGTAPKLLIYRSNQRPSGVPDRFSGSKSGTSASLAISGLRSEDEADYYCQTWGTGWVFGGGTKLTVLGQPKAAPSVTLFPPSSEELQANKATLVCLISDFYPGAVTVAWKADSSPVKAGVETTTPSKQSNNKYAASSYLSLTPEQWKSHRSYSCQVTHEGSTVEKTVAPTECS |  |  |  | 126 nM

From patent US11071788B2, “Antibody drug conjugates of kinesin spindel protein (KSP) inhibitors with antiB7H3-antibodies” (BAYER PHARMA AKTIENGESELLSCHAFT, priority 2015, dated 2021)
